The full ranking holds about 33,000 sequences; the median of “E-score (-0.5 to 0.5)” is about -0.035, and the highest 2% start at about 0.35. The list shows a part of the results.
Molecular target: T1, Pdr3 (UniProt P33200)
T1 sequence: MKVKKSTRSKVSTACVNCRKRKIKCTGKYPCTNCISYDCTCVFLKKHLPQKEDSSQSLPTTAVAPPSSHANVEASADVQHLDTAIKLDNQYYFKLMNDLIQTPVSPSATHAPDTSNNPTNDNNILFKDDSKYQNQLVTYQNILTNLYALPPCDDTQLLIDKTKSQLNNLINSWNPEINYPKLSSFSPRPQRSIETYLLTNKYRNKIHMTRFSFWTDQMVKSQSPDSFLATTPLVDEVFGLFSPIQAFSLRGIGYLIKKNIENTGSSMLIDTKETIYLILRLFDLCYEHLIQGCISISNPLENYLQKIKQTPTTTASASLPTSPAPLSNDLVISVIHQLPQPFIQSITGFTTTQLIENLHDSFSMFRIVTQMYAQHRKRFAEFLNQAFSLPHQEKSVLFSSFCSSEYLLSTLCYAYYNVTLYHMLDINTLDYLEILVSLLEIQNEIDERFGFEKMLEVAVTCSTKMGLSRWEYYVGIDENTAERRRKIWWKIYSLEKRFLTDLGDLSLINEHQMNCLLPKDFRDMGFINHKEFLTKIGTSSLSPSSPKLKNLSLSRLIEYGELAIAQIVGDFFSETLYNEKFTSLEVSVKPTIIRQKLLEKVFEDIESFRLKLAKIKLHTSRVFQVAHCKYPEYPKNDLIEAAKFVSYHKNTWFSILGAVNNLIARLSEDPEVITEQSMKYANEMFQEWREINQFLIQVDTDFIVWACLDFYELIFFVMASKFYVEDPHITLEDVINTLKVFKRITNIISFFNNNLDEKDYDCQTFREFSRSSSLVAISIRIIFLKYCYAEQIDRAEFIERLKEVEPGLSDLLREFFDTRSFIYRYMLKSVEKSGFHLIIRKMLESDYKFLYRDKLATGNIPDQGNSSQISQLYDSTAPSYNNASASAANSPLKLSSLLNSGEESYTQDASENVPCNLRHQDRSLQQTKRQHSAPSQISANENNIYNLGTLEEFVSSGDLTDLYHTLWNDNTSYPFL
Assay: PBM E-score (8-mer binding enrichment) (E-score (-0.5 to 0.5)); higher = stronger / more preferred TF binding; most listed sequences are background and not binding sites
Settings: protein concentration: 200 nM; construct: GST-full length
Procedure, shortened: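 Universal all-10-mer Agilent arrays, double-stranded by primer extension on fresh or once-stripped slides, were probed with about 100-200 nM GST-tagged yeast transcription factors made by PURExpress. Fluorescent anti-GST detected bound protein, and masliner normalised the scans. E-scores from the Universal PBM Analysis Suite were given to each ungapped eight-base word pooled with its reverse complement.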

| Sequence | PBM E-score |
| --- | --- |
| GGAAAGTA | 0.223 |
| CCCGTCAG | 0.0914 |
| AACTGTGA | 0.0734 |
| ACCCCTCA | -0.0399 |
| TCACGGGA | 0.203 |
| AGATACAT | 0.0262 |
| TGACAAAA | -0.115 |
| TGCGCCCA | -0.0623 |
| AACCAATC | 0.152 |
| AAGCGAGC | 0.0993 |
| TGGACCCA | -0.168 |
| GGACACCC | 0.117 |
| GCAAGCGC | 0.051 |
| AAATGAGT | 0.0718 |
| ACGAAAGT | -0.0393 |
| AACTTCAA | -0.0145 |
| ATAAAACC | 0.036 |
| CTACGCGA | -0.139 |
| ATAAGAGA | 0.082 |
| GTGAAATA | -0.0968 |
| ATACATAG | -0.126 |
| CATGACAG | -0.114 |
| AGGAGTGG | -0.0796 |
| CACTAGGC | -0.0109 |
| CACCAAAA | -0.054 |

| Sequence | PBM E-score |
| --- | --- |
| AACACTGC | 0.145 |
| ACTACGGA | 0.362 |
| ATTCAAGC | 0.0293 |
| TCTGGTCA | -0.172 |
| CAATCATA | 0.0491 |
| TAAGGGCA | -0.0407 |
| ATCGGTAG | -0.0753 |
| ACCAGGGC | -0.0386 |
| GATAAAAC | 0.201 |
| TACCCGGA | 0.381 |
| CCGAGTCA | 0.166 |
| CCAATGGC | -0.0721 |
| AGTCAGCC | -0.063 |
| AATACCAT | 0.0209 |
| GGAAGACA | 0.0457 |
| TAGTCATA | -0.247 |
| AAAAGGTA | -0.0334 |
| ACTCCGAA | 0.238 |
| CATGTAAA | -0.143 |
| ACTATTAG | -0.0165 |
| ATAAAGAA | -0.047 |
| CTACCCCA | -0.0646 |
| CTGATCTA | 0.0483 |
| AGCAGCGG | 0.0503 |
| ACCGCTCT | -0.0701 |

| Sequence | PBM E-score |
| --- | --- |
| CATGAATC | -0.0484 |
| AATCGTAA | -0.0201 |
| CCAGCATC | -0.0058 |
| GAGACCGC | -0.0255 |
| CGCTTGTC | 0.198 |
| GTGCTGTA | -0.122 |
| GAGGCTCC | 0.047 |
| TAAAGTTA | -0.0144 |
| CCGCGACC | 0.215 |
| AAATTGCC | 0.159 |
| ATGGCTCC | 0.0449 |
| CCCGGTCG | 0.196 |
| AGCTAGAA | -0.195 |
| AGCTGAGA | -0.105 |
| CAGCAACG | 0.201 |
| GGACGACC | -0.0865 |
| AAACGTTC | -0.101 |
| AATCCTAG | -0.108 |
| GCCTTGAA | -0.311 |
| GCGGTTTA | 0.0976 |
| ATGCGATA | -0.121 |
| ATGCGAGG | 0.0336 |
| CCCGCAGA | 0.235 |
| AAAACCCC | 0.103 |
| TCTACACA | -0.161 |

| Sequence | PBM E-score |
| --- | --- |
| TCCCCCCA | -0.281 |
| CAAATGAA | 0.00025 |
| AGCCACGC | -0.112 |
| AAGTTCCA | 0.00015 |
| ATAGTTTG | 0.0183 |
| CAAGGGCC | -0.148 |
| AGTGCTAG | -0.0699 |
| GTGAACAA | 0.0506 |
| AATCTGTC | 0.0502 |
| ACGATACA | -0.177 |
| ACTACCCC | -0.129 |
| AAACAGGG | -0.108 |
| ACCCCGAA | 0.283 |
| AAGTCCTA | -0.0927 |
| ACGCTTGC | -0.0328 |
| AAAGACGC | 0.00677 |
| AACTAGCT | -0.109 |
| ATGCGTTC | 0.086 |
| ATCGGAGA | 0.25 |
| GAACGGCC | 0.202 |
| CTATACAC | -0.187 |
| AGAGGACG | -0.0552 |
| CTACTTGC | -0.00111 |
| CCTGCCAA | -0.144 |
| TATCTCCA | 0.0175 |

| Sequence | PBM E-score |
| --- | --- |
| AGCAAAAG | -0.336 |
| CCTAGAAA | -0.0522 |
| CTCGATAC | 0.0192 |
| AAGTGTAT | -0.246 |
| CGATTGCC | -0.0543 |
| CGCCGCAA | 0.269 |
| AGTGCACG | -0.0387 |
| AGGTTTTA | -0.0633 |
| CAATATGC | -0.0963 |
| ATCGCGTC | 0.0876 |
| ACTTGACT | -0.254 |
| CGCTCCTA | -0.0844 |
| AACGCTGA | -0.139 |
| TGTAAAAA | -0.165 |
| CAGGATGA | -0.171 |
| CCTATCAA | -0.0626 |
| CAGCGGCG | 0.154 |
| TACTTAAA | -0.239 |
| CGCAGGAA | 0.033 |
| AAAAGCTC | 0.0158 |
| CGTGTAAA | -0.148 |
| CCTTGGTC | -0.123 |
| CTATAGAG | -0.175 |
| CGCCACGC | 0.00141 |
| AACCAGGA | -0.0441 |

| Sequence | PBM E-score |
| --- | --- |
| TAGCAAAA | -0.139 |
| GTGACCAC | -0.134 |
| CCTAGACC | -0.184 |
| CTACCATA | -0.0761 |
| ACCAGTTG | -0.171 |
| TCCCTGAA | -0.0452 |
| CTAGTCTA | -0.281 |
| AAATTCGT | 0.226 |
| AACTCTAT | -0.00718 |
| CCCGGTAA | 0.202 |
| ACTACTAA | -0.0208 |
| AATCTTTA | -0.131 |
| GATCCTTA | -0.133 |
| AGAAGGCG | -0.15 |
| CTGGATCC | 0.285 |
| GGGTGGGA | 0.175 |
| AATACGGT | -0.0727 |
| GAACTCTC | -0.0534 |
| CCCGTGGA | 0.395 |
| CCCCCCAA | -0.198 |
| GAGGAACA | 0.147 |
| CCGCCGTA | 0.194 |
| CTGTGACC | -0.0932 |
| GCGCCTAC | 0.0207 |
| ACACGCAT | -0.168 |

| Sequence | PBM E-score |
| --- | --- |
| CACCAAAC | -0.02 |
| ATTACTTG | -0.0328 |
| ATGCGCTG | -0.0256 |
| ACTAGCCA | -0.197 |
| AAGACTCC | -0.146 |
| CAGCTTTA | -0.00836 |
| AGCGCCTA | 0.0254 |
| CGGGTGTC | 0.161 |
| GGGTCGGA | 0.227 |
| ACTGGTGG | -0.223 |
| GAACCTCA | -0.0542 |
| GTGGACAA | 0.183 |
| CGAGTGTC | 0.0372 |
| AAGGGTCC | 0.205 |
| CTATTACA | 0.0326 |
| TAAGCCCA | -0.113 |
| AACGTCCC | -0.0817 |
| CGATCGCC | 0.152 |
| CCAGCTAC | -0.0463 |
| GAAGTACA | -0.0942 |
| AAAGGAGC | -0.0204 |
| CACGCTAC | -0.144 |

From the supplement of paper PMC3334620
